Measurements: ChEMBL document CHEMBL1909046, “DrugMatrix in vitro pharmacology data”

Assays:
Cytochrome P450 1A2 = target: T1, Cytochrome P450 1A2 (Homo sapiens, UniProt P05177); conditions: bti-tn-5b1-4
T1 sequence (P05177 whole entry): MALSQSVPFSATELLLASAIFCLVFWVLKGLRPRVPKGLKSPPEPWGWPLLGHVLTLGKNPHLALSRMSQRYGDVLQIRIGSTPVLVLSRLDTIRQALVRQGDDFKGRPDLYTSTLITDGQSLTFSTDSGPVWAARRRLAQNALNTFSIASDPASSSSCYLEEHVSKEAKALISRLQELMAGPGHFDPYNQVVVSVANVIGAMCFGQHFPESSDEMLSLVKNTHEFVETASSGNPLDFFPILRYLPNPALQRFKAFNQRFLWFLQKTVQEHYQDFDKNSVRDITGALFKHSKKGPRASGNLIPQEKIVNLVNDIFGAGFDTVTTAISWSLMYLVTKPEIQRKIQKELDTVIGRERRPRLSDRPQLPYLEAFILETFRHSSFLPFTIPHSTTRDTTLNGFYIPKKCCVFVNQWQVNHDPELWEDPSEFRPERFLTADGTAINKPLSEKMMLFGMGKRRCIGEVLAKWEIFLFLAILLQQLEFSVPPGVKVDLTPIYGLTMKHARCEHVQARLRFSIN

Cytochrome P450 2A6 = target: T2, Cytochrome P450 2A6 (Homo sapiens, UniProt P11509); conditions: bti-tn-5b1-4
T2 sequence (P11509 whole entry): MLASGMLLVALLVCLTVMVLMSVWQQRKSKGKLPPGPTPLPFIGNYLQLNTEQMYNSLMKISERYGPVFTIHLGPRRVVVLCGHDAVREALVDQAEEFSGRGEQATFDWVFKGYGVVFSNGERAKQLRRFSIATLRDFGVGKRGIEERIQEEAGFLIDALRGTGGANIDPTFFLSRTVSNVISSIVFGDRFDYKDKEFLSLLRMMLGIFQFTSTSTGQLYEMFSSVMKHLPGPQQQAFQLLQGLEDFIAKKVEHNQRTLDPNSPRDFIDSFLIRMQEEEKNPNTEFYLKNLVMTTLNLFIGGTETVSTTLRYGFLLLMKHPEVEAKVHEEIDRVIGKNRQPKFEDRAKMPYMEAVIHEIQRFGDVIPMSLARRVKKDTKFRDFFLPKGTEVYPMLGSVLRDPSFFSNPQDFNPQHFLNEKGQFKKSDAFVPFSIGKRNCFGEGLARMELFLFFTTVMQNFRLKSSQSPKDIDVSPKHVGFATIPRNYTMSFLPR

Cytochrome P450 2C9 = Cytochrome P450 2C9 (Homo sapiens, UniProt P11712); conditions: bti-tn-5b1-4
Cytochrome P450 2D6 = Cytochrome P450 2D6 (Homo sapiens, UniProt P10635); conditions: bti-tn-5b1-4
Cytochrome P450 2E1 = Cytochrome P450 2E1 (Homo sapiens, UniProt P05181); conditions: bti-tn-5b1-4
Cytochrome P450 3A4 = Cytochrome P450 3A4 (Homo sapiens, UniProt P08684); conditions: bti-tn-5b1-4
[1] = target: Voltage-gated inwardly rectifying potassium channel KCNH2 (Homo sapiens, UniProt Q12809); conditions: hek293
Cytochrome P450 2C19 = Cytochrome P450 2C19 (Homo sapiens, UniProt P33261); conditions: bti-tn-5b1-4
Further: in other assays of this panel Not Active means under 50% inhibition at 10 µM.

Chain of Cytochrome P450 2E1 (P05181 whole entry): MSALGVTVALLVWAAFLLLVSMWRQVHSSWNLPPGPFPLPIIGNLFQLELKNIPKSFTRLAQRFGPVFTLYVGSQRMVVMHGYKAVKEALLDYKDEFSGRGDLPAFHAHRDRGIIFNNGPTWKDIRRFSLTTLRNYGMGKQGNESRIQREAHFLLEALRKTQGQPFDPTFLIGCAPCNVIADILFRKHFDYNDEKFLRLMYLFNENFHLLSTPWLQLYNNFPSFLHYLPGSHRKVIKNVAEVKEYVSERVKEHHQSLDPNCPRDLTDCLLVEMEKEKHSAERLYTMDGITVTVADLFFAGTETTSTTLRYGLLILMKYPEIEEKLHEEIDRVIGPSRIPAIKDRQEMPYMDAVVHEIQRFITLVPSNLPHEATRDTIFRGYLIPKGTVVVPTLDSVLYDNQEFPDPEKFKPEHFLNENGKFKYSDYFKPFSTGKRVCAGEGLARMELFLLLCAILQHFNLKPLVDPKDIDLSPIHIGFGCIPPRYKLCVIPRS
Chain of Cytochrome P450 3A4 (P08684 whole entry): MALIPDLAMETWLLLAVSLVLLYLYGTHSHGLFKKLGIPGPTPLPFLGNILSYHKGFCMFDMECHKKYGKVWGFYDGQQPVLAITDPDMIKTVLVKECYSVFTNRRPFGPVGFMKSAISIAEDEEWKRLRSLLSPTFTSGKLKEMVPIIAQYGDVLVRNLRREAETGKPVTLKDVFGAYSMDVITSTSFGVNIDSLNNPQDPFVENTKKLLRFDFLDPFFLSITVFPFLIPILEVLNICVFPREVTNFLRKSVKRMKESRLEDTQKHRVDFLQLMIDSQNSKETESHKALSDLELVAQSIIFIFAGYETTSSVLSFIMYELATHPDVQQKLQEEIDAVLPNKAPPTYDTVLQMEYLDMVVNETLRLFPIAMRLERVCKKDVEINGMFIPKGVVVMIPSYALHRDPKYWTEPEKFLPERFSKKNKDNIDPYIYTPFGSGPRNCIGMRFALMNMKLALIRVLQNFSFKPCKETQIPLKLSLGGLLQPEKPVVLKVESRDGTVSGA
Chain of Cytochrome P450 2D6 (P10635 whole entry): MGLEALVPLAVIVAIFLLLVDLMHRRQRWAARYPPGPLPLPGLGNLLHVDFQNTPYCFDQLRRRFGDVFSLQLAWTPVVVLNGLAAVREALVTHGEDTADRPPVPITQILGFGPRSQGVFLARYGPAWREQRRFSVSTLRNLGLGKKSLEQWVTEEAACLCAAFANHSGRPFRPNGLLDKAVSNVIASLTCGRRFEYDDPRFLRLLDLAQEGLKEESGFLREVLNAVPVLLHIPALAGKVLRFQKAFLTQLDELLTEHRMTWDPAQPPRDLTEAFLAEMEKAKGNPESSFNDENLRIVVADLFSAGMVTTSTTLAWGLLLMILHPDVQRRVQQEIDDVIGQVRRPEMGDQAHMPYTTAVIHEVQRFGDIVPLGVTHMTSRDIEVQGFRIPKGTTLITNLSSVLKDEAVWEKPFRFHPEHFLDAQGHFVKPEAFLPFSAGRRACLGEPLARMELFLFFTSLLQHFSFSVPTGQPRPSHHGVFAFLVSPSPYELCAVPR
Chain of Cytochrome P450 2C9 (P11712 whole entry): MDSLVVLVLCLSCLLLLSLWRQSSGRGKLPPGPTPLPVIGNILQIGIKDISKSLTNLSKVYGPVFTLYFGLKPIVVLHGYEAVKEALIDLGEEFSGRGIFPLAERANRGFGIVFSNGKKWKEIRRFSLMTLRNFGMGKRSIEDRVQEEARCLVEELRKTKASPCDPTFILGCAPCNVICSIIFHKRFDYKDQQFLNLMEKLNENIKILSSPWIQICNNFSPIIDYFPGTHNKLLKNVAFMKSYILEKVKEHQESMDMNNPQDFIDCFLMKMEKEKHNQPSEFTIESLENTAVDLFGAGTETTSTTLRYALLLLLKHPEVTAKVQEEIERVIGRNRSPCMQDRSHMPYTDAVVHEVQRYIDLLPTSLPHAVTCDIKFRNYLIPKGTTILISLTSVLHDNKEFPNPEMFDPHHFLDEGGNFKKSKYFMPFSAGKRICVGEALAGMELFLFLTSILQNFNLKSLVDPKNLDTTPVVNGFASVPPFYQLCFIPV
Chain of Voltage-gated inwardly rectifying potassium channel KCNH2 (Q12809 whole entry): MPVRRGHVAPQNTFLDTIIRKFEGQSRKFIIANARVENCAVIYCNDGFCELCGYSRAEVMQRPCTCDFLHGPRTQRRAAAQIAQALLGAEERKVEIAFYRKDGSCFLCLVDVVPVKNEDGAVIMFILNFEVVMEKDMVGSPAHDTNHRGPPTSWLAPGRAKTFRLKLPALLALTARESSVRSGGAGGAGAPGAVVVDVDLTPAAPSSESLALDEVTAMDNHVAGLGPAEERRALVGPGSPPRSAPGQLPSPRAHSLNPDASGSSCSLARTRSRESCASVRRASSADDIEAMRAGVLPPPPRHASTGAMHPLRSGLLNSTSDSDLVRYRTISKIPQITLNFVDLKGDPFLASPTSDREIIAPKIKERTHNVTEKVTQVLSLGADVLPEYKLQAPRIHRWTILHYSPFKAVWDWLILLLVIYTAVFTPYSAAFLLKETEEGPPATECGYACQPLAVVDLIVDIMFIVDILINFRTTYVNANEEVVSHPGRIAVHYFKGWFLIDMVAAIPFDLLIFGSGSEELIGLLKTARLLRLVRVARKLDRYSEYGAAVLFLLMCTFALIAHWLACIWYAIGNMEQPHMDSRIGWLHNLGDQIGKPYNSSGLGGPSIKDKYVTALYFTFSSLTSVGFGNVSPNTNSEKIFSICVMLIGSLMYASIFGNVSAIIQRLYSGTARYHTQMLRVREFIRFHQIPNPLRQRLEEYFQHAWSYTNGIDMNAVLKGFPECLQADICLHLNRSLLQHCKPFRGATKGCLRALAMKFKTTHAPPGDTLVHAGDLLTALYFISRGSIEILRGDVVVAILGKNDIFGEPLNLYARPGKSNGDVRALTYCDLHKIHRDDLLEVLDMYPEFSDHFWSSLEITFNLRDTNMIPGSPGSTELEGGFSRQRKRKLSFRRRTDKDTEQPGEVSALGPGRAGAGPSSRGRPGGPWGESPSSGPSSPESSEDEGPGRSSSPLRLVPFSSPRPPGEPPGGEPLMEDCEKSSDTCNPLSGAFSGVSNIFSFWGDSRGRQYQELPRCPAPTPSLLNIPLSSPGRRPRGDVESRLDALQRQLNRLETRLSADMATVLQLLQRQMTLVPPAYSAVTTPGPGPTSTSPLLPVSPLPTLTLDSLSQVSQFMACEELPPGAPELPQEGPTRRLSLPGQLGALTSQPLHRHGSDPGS
Chain of Cytochrome P450 2C19 (P33261 whole entry): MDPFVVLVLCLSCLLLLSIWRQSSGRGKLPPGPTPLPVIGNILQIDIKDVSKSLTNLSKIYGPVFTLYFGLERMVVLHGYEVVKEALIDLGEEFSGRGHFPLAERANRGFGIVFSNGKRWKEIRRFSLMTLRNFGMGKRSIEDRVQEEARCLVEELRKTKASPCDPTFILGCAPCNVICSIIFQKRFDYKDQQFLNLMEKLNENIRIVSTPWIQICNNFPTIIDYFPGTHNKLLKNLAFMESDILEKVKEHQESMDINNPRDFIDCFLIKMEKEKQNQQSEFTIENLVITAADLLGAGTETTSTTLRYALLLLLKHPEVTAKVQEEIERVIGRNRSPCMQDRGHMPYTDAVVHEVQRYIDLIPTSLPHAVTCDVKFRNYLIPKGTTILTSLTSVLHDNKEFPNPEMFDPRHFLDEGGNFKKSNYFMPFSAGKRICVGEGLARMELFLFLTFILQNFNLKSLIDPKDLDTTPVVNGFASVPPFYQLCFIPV

Row | Compound | IC50 (Cytochrome P450 1A2) | Ki (Cytochrome P450 1A2) | IC50 (Cytochrome P450 2A6) | Ki (Cytochrome P450 2A6) | IC50 (Cytochrome P450 2C9) | Ki (Cytochrome P450 2C9) | IC50 (Cytochrome P450 2D6) | Ki (Cytochrome P450 2D6) | IC50 (Cytochrome P450 2E1) | Ki (Cytochrome P450 2E1) | IC50 (Cytochrome P450 3A4) | Ki (Cytochrome P450 3A4) | IC50 [1] | Ki [1] | IC50 (Cytochrome P450 2C19) | Ki (Cytochrome P450 2C19)
1 | O=C1OCCN1/N=C/c1ccc([N+](=O)[O-])o1 [FURAZOLIDONE] | Not Active | Not Active | Not Active | Not Active | Not Active | Not Active | Not Active | Not Active | Not Active | Not Active | Not Active | Not Active | Not Active | Not Active | – | –
2 | COC(=O)C1=C(C)NC(C)=C(C(=O)OC)C1c1ccccc1[N+](=O)[O-] [NIFEDIPINE] | – | Note: corresponding IC50 reported as Active | Not Active | Not Active | Not Active | Not Active | Not Active | Not Active | Not Active | Not Active | Not Active | Not Active | Not Active | Not Active | Not Active | Not Active
